Measurements: publication PMC10691697, “A small molecule exerts selective antiviral activity by targeting the human cytomegalovirus nuclear egress complex” (PLOS Pathogens, 2023)
Values joined by “and” are separate entries in the source; they are usually repeats but may differ in a detail not shown here. Equal values may be shown once. Read-outs that look alike come from different tables or passages of the source.

Tests used:
[1] = system: HCMV expressing GFP (53-F BADGFP); conditions: 6 dpi, replicates
HSV-1 strain KOS = format: cell-based, herpes simplex virus 1; conditions: 2 dpi, replicates
Procedure: Standard plaque reduction assays used to assess the antiviral activity of GK1 and GK2 against HSV in HFF cells were performed as described with minor modifications. Briefly, 1x10^5 HFF cells in each well of a 24-well plate were infected with ~ 100 PFU/well of HSV-1 strain KOS. After 2h, the inocula was removed and DMEM containing methylcellulose, 1% DMSO, and various concentrations of GK1 or GK2 was added. After two days, plaques were stained with crystal violet and counted. ED50’s for GK1 or GK2 were calculated as described above.

HFF cells = experiment: in vitro; format: cell-based, human; conditions: replicates
Procedure: Cytotoxicities of various compounds were determined using a WST-1 assay that measures metabolic activity (Roche), and CC50’s were calculated as described previously.

C=CC(=O)Nc1cccc(Oc2ccnc3[nH]ccc23)c1 [GK2]
anti-HCMV: number of plaques relative to DMSO vehicle ([1]; 0.20 μM compound): 100.0000
anti-HCMV: number of plaques relative to DMSO vehicle ([1]; 0.40 μM compound): 95.0000 and 84.0000 and 72.0000
anti-HSV: number of plaques relative to DMSO vehicle (HSV-1 strain KOS; 0.40 μM compound): 100.0000 and 85.0000 and 93.0000
anti-HSV: number of plaques relative to DMSO vehicle (HSV-1 strain KOS; 0.80 μM compound): 100.0000 and 87.0000 and 80.0000
anti-HSV: number of plaques relative to DMSO vehicle (HSV-1 strain KOS; 1.60 μM compound): 95.0000 and 85.0000 and 80.0000
cytotoxicity on HFF: WST-1 absorbance relative to DMSO vehicle (HFF cells; 0.20 μM compound, 6 days): 95.0000 and 96.0000 and 90.0000
cytotoxicity on HFF: WST-1 absorbance relative to DMSO vehicle (HFF cells; 0.40 μM compound, 2 days): 99.0000 and 100.0000 (2×)
cytotoxicity on HFF: WST-1 absorbance relative to DMSO vehicle (HFF cells; 0.40 μM compound, 6 days): 94.0000 and 93.0000 and 97.0000
cytotoxicity on HFF: WST-1 absorbance relative to DMSO vehicle (HFF cells; 0.80 μM compound, 2 days): 100.0000 (2×) and 94.0000
cytotoxicity on HFF: WST-1 absorbance relative to DMSO vehicle (HFF cells; 1.60 μM compound, 2 days): 100.0000 and 84.0000 and 95.0000
cytotoxicity on HFF: WST-1 absorbance relative to DMSO vehicle (HFF cells; 50.00 μM compound, 2 days): 45.0000 and 35.0000 and 40.0000
